Whole data set: some 110,000 compounds, median “z-score” near -0.1, cut for the highest 2% near 2. This is one part of the list.

The target of this assay is Metabotropic glutamate receptor 8 (Rattus norvegicus) (UniProt P70579). Description: mGluR8 Gi/Go-coupled signaling modulation – cell-based, rat, thallium flux, HTS, primary screen (AID 488969). The conditions noted are these: HEK293 rat mGluR8, GIRK (G protein-gated inwardly rectifying potassium channel) thallium flux, FluoZin2; at 10 µM; stronger effect = higher value; submaximal glutamate (EC20) added with thallium.
Sequence of UniProt P70579 (P70579 whole entry, looked up): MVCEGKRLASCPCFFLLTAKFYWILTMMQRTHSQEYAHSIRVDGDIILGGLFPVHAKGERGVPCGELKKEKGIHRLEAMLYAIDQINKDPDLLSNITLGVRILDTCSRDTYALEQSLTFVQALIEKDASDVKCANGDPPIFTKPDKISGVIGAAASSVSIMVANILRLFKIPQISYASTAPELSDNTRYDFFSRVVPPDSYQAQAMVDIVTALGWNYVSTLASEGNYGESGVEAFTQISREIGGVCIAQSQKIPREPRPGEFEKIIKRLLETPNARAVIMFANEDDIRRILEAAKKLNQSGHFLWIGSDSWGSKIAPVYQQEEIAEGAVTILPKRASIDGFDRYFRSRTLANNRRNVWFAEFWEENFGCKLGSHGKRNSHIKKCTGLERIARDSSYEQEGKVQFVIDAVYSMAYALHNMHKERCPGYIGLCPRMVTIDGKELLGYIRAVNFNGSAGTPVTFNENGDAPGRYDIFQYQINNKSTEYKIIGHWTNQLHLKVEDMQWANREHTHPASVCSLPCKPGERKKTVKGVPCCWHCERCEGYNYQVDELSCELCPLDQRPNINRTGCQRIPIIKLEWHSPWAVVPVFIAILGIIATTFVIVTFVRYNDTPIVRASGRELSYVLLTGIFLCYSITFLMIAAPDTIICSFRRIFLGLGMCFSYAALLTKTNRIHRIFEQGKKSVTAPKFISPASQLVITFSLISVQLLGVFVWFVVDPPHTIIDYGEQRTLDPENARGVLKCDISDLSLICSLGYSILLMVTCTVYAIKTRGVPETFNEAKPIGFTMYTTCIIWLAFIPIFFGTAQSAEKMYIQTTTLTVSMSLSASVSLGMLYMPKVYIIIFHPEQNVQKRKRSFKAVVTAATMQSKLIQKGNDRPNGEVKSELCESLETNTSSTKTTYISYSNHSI
`Cc1nn(-c2ccccc2)c(C)c1/C=C/C(=O)OCC(=O)Nc1ncc(Cl)cc1Cl` registered a z-score of -0.544.

For the compound `Cc1cccc(NC(=O)CSc2nnc(Cn3nnc(-c4ccccc4)n3)n2-c2ccccc2)c1`, the z-score stood at 1.13.

For the compound `Cc1cccc(-n2[nH]c3c4c(ccc3c2=O)C(=O)c2ccccc2C4=O)c1`, the z-score was -0.425.

In turn, `Cn1c(=O)c(-c2ccccc2)nn2c3ccccc3nc12` registered a z-score of -0.291.

As to `CS(=O)(=O)N(CC(=O)NCc1ccccc1)C1CCCCC1`, the z-score was 0.925.

Compound `C=CCn1c(Cn2nnc3ccccc32)nnc1SCC(=O)N/N=C/c1cc(Br)cc(OC)c1O` yielded a z-score of -0.21.

In the case of `CCCCC(C(=O)O)C(C)CC(=O)Nc1ccn(-c2ccccc2)n1` (centres undefined), the z-score is -0.321.

The compound `COc1ccc(CCNC(=O)CSc2nnnn2-c2ccccc2OC)cc1OC` registered a z-score of 0.275.

`Nc1nc(SCC(=O)Nc2ccccc2)[nH]c(=O)c1-c1ccccc1` displayed a z-score of -0.306.

In turn, `CC(=O)Oc1ccc(Cn2cnc3cc4ccccc4cc32)cc1` came in with a z-score of -0.0735.

On to `Cc1nc(SCC(=O)NC2CCCC2)[nH]c(=O)c1Cc1ccccc1`, for which the z-score was determined as 0.0283.

For the compound `FC(F)(F)c1cccc(NC(=S)NCC(c2cccnc2)N2CCOCC2)c1` (centres undefined), the z-score is 0.278.

As for `CCn1c(C)cc(=S)c2ccccc21`, the z-score is 0.166.

Compound `COc1ccc(-c2cn3cccnc3n2)cc1NC(=O)c1cccs1` came in with a z-score of -0.211.

The compound `COCCNc1nc2ccccc2nc1NS(=O)(=O)c1ccc(C)cc1C` gave a z-score of 0.068.

`Cc1ccc(OCC(=O)Nc2sc3c(c2C#N)CCC3)cc1C`: the z-score is -0.0369.

As for `CC(C)CC(C(=O)OCC(=O)Nc1cccc(Cl)c1)N1C(=O)C2CC=CCC2C1=O` (centres undefined), the z-score stood at 0.307.

For `CC(C)Oc1ccc(C2CC(=O)N(c3ccc(N(C)C)cc3)C2=O)cc1` (centres undefined), the z-score is -0.0638.

The compound `Cc1sc(N/N=C/c2cccnc2)nc1-c1ccccc1` came in with a z-score of 0.388.

`COc1ccccc1CNC(=O)C1CCN(C(=O)N(C)C)CC1` had a z-score of -0.211.

Take `CC(=O)Nc1ccc(Nc2ncnc3c2cnn3-c2ccc(C)cc2C)cc1`: the z-score was -0.117.

As to `COc1ccc(S(=O)(=O)N(Cc2ccccc2)Cc2nc(-c3ccccc3)no2)cc1`, the z-score is -0.896.

In turn, `CCNC(=S)N/N=C/c1ccc(OCCOc2ccccc2C)cc1` showed a z-score of 0.162.

Turning to `C=CCOc1c2ccc(C(=O)NCc3ccccc3OC)cc2nn1C`, the z-score was -0.142.

Regarding `Cc1noc(/C=C/N(C)C)c1S(=O)(=O)N1CCCC(C(=O)NCc2cccs2)C1` (centres undefined), the z-score is -0.27.

Turning to `CCC(=O)NC(Nc1cc(C)cc(C)n1)(C(F)(F)F)C(F)(F)F`, the z-score is 1.57.

`O=C(c1ccccc1)N1CCN(c2ccc([N+](=O)[O-])c(N3CCOCC3)c2)CC1` showed a z-score of -0.439.

In the case of `COc1ccc(NC(=O)CCc2nc(-c3ccccc3F)no2)cc1`, the z-score was -0.134.

As to `CCCc1c(C)c2ccccc2[nH]c1=O`, the z-score is -0.333.

The compound `Cc1cccc(Sc2ccc([N+](=O)[O-])cn2)c1` had a z-score of -1.63.

Compound `O=C(c1ccccc1-c1nc(-c2ccccc2)no1)N1CCCC1` displayed a z-score of 0.545.

As to `COc1ccc(S(=O)(=O)N2CCN(c3ccc(C)cc3C)CC2)cc1OC`, the z-score was -0.11.

On to `CCOc1ccc(C(=O)/C=C/c2ccccc2C(F)(F)F)cc1`, for which the z-score was -0.354.

`CC1Cc2ccccc2N1CC(=O)c1c(N)n(Cc2ccccc2)c(=O)n(C)c1=O` (centres undefined) had a z-score of -0.314.

Consider `O=C(CSc1nnc(-c2ccc(F)cc2)o1)Nc1ccc(S(=O)(=O)N2CCCC2)cc1`, for which the z-score is -0.39.

Turning to `COCc1c(C(=O)OC)nnn1-c1ccccc1`, the z-score turned out to be 0.737.

`O=C(NCC(=O)N(c1ccc2c(c1)OCCO2)C(C(=O)NC1CCCC1)c1ccco1)c1ccco1` (centres undefined) showed a z-score of -0.259.

Consider `CCOc1ccc2nc(NS(=O)(=O)c3ccc4c(c3)n(C)c(=O)n4C)sc2c1`, for which the z-score worked out at 0.623.

In the case of `COc1ccc2c(c1)CCCC21NC(=O)N(CC(N)=O)C1=O` (centres undefined), the z-score is -0.189.

`Nc1nnc(CCOc2ccccc2Cl)s1` returned a z-score of -0.0619.

`O=C(CSC1=Nc2ccccc2C2=NC(Cc3c[nH]c4ccccc34)C(=O)N12)NC1CCCCC1` (centres undefined): the z-score was -0.234.

With `O=C(CN(Cc1cccs1)S(=O)(=O)c1ccc(S(=O)(=O)NC2CCCCC2)cc1)Nc1ccccc1`, the z-score is -0.107.

Turning to `O=C(NCc1ccc2c(c1)OCO2)c1cccc(F)c1`, the z-score is -1.05.

Take `CC(C)NC(=O)C1CCCN(S(=O)(=O)c2ccc(-n3cnnn3)cc2)C1` (centres undefined): the z-score is 0.0412.

`CCCCn1c(=O)c(CCC(=O)OC(C)C(=O)Nc2cccc(Cl)c2Cl)nc2ccccc21` (centres undefined) yielded a z-score of -0.172.

Turning to `Oc1cccc(NC(=S)Nc2ccc(SC(F)F)cc2)c1`, the z-score turned out to be 2.92.

Consider `O=c1ccc(-c2ccccc2)n[nH]1`, for which the z-score amounted to 0.467.

With `CCCCNC(=O)CNC(=S)N(CCCN1CCOCC1)Cc1cccs1`, the z-score is -0.324.

`C=CCn1c(CCNC(=O)c2cccs2)nnc1SCC(=O)c1ccc(Br)cc1` returned a z-score of 1.79.

`COc1ccc(OC)c(S(=O)(=O)N2CCC(C(=O)NCC3CCCO3)CC2)c1` (centres undefined) showed a z-score of -0.246.

As for `CCOc1ccc(C(=O)Nc2cccc(NC(=O)c3cccs3)c2)cc1[N+](=O)[O-]`, the z-score is -0.175.

For `COc1ccc(C(=O)NCC(=O)Nc2ccc(F)cc2)cc1OC`, the z-score was -0.158.

Turning to `COc1cc2c(cc1NC(=O)C(C)Sc1cccc[n+]1[O-])oc1ccccc12` (centres undefined), the z-score is -1.1.

`COC(=O)CN1C(c2cccc(Cl)c2)=Nc2ccc(Cl)cc2C1c1ccccc1` (centres undefined) registered a z-score of -0.337.

`COc1ccc(OC)c(NC(=O)CSc2ccccc2)c1` yielded a z-score of -0.169.

`OC(CSc1c(Cl)cccc1Cl)CN1CCN(c2ccc(F)cc2)CC1` (centres undefined): the z-score is -0.688.

Consider `COC(=O)N1CCN(c2ccc(C(C)=O)cc2)CC1`, for which the z-score was -0.0754.

`Cc1ccc(C)c2[nH]c(=O)c(CN(Cc3ccco3)C(=O)Nc3ccccc3)cc12` came in with a z-score of -0.38.

`CC(=O)Nc1ccc(NC(=O)CN(c2cccc(C)c2)S(C)(=O)=O)cc1` displayed a z-score of -1.56.

On to `CCOc1ccccc1C(=O)Nc1cc(OC)ccc1OC`, for which the z-score was -0.561.

Consider `COc1ccc(NC(=O)C2CCCCN2S(=O)(=O)c2ccc(F)cc2)c(OC)c1` (centres undefined), for which the z-score came out at 1.02.

With `CCCCSc1nc(C)cc(C)c1S(=O)(=O)c1ccccc1C`, the z-score is -0.318.

In turn, `O=C(c1ccccc1)c1ncc(C(F)(F)F)cc1Cl` came in with a z-score of 0.575.

As to `CCC(C)(C(=O)NC1CCCCC1)N(C(=O)CNC(C)=O)c1c(C)n(C)n(-c2ccccc2)c1=O` (centres undefined), the z-score was found to be 0.0496.

Compound `Cc1cc(C(F)(F)F)nn1CC(=O)N(C)C1CCCCC1` gave a z-score of 0.278.

With `COc1ccccc1-c1ccc(=O)n(CC(=O)NCc2ccc3c(c2)OCO3)n1`, the z-score was found to be 0.0292.

In turn, `CCOC(=O)c1c(N2CCCCC2)c2ccccc2[nH]c1=O` returned a z-score of 0.155.

With `CCN1CCN(Cc2c(O)ccc3c(=O)c(-c4ccccc4OC)coc23)CC1`, the z-score is -0.589.

`C/C(=N\Nc1ccc(S(=O)(=O)Nc2ccc(Cl)cc2)cc1[N+](=O)[O-])c1ccc(N2CCOCC2)cc1` came in with a z-score of -0.0536.

For the origin of these results see PubChem BioAssay AID488969 (Vanderbilt High Throughput Screening Facility, 2010).
